Assay results: US12441811B2, “Compositions and methods for treating serpin B13 disorders” (REGENTS OF THE UNIVERSITY OF MINNESOTA, priority 2019, dated 2025)
Values belong to the molecule of their own block, whether it stands above or below them.

Experiments:
[1] = test system: human serpinB13 and other clade B serpins; assay: Specificity of human anti-serpinB13 antibodies (ELISA, Luminex-based assay); assay type: binding; conditions: Luminex at 1.0 μg/mL
Procedure: Human anti-serpinB13 mAbs bind specifically to serpinB13, but not to other members of the clade B protein family. To produce human antibody to serpinB13, three rounds of biopanning were performed, using Fab library (1×10^11 antibody specificities), against recombinant human serpinB13 produced in baculovirus and immobilized on solid matrix. Screening of individual clones by ELISA led to DNA fingerprinting and sequencing of three unique clones. Positive antibodies were tested by ELISA for binding to the target antigen and cross-reactivity with other proteins. The Fab fragments were then reformatted into fully human full-length IgG1. […] It was also noticed that these mAbs recognize both mouse and human serpinB13.
Recombinant proteins and their expression. […]
Luminex assay. […] The data were expressed as fluorescence intensity (F.I.) due to serum binding activity in the presence of beads precoated with serpinB13 and after subtracting the average F.I. due to serum binding activity in the presence of beads precoated with control proteins, Gfp and Scgn (e.g. F.I^B13−[F.I.^GFP+F.I.^Scgn]/2). The samples were evaluated based on the level of F.I. and the degree of inhibition of binding to serpin-B13 coated beads with soluble serpinB13 (2.5 μg/mL), compared with the bovine serum albumin (BSA). […]

serpin B13 = assay: ELISA and SPR assays to verify affinity of the humanized and chimeric antibody; assay type: binding
Procedure: (§1) ELISA and SPR assays were performed to verify the affinity of the humanized and chimeric antibody. […] Thermostability (Tm and Tagg values) of the antigen, humanized antibody and chimeric antibody was measured using UNcle system.

[2] = Thermostability (Tm and Tagg) using UNcle system; assay type: physicochemical; conditions: after humanization, compared with chimeric antibody
Procedure: as §1

binding affinity for the target antigen (serpin B13): obvious binding affinity
B2: chimeric antibody: mouse/human chimeric IgG of B29; heavy chain SEQ ID NO:22, light chain SEQ ID NO:24 (antibody)
heavy: QIQLVQSGPELKKPGETVKISCKASGYTFTTYGMSWVKQAPGKGLKWMGWINTYSGMPTYADDFKGRFAFSLETSATTAYLQINNLKNEDTATYFCARPLLGLDYWGQGTTLTVSS[human IgG1 constant region omitted]
light: DIVMTQTPLSLSVTIGQPASISCKSSQSLLHSDGKTFLNWFLQRPGQSPKLLIYLVSKLESGIPDRFSGSGSGTDFTLKISRVEVEDLGVYYCLQHTHFPLTFGAGTKLEIKRTVAAPSVFIFPPSDEQLKSGTASVVCLLNNFYPREAKVQWKVDNALQSGNSQESVTEQDSKDSTYSLSSTLTLSKADYEKHKVYACEVTHQGLSSPVTKSFNRGEC

binding affinity for the target antigen (serpin B13): obvious binding affinity
B3: humanized antibody: CDR-grafted humanized B29; heavy chain SEQ ID NO:18, light chain SEQ ID NO:20 (antibody)
heavy: EIQLVESGGGLVQPGGSVRLSCAASGYNFKTYGMSWVRQAPGKGLEWMGWINTYSGMPTYADDFKGRFTFSLDTSKNTAYLQINSLRAEDTAVYFCARPLLGLDYWGQGTLVTVSS[human IgG1 constant region omitted]
light: DIQMTQSPSSLSASVGDRVTITCKSSQSLLHSDGKTFLNWFQQKPGKSPKLLIYLVSKLESGVPSRFSGSGSGTDFTLTISSLQPEDFATYYCLQHTHFPLTFGQGTKVEIKRTVAAPSVFIFPPSDEQLKSGTASVVCLLNNFYPREAKVQWKVDNALQSGNSQESVTEQDSKDSTYSLSSTLTLSKADYEKHKVYACEVTHQGLSSPVTKSFNRGEC
Tagg [2]: enhanced
Tm [2]: enhanced

The next lines start with the molecule.

B1: mAb3: fully human full-length IgG1 to serpinB13; CLONE3 heavy SEQ ID NO:49, light SEQ ID NO:53 (antibody)
heavy: QVQLQQWGAGLLKPSETLSLTCAVYGGSFSGYYWSWIRQPPGKGLEWIGEINHSGSTNYNPSLKSRVTISVDTSKNQFSLKLSSVTAADTAVYYCARRYCSGGSCYLVGTGSELDYWGQGTLVTVSS[human IgG1 constant region omitted]
light: DIQMTQSPSTLSASVGDRVTITCRASQSISSWLAWYQQKPGKAPKLLIYKASSLEIGVPSRFSGSGYGTEFTLTISSLQPDDFATYYCLQYSTHSTFGQGTRVEIKRTVAAPSVFIFPPSDEQLKSGTASVVCLLNNFYPREAKVQWKVDNALQSGNSQESVTEQDSKDSTYSLSSTLTLSKADYEKHKLYACEVTHQGLSSPVTKSFNRGEC
specificity of binding: serpinB13 versus other clade B serpins [1]: specifically recognize human serpinB13 but no other serpins of clade B family

B4: mAb2: fully human full-length IgG1 to serpinB13; CLONE2 heavy SEQ ID NO:41, light SEQ ID NO:45 (antibody)
heavy: QMQLVQSGGGVVRPGGSLRLSCAASGFTFDDYGMSWVRQAPGKGLEWVSGINWNGGSTGYADSVKGRFTISRDNAKNSLYLQMNSLRAEDTALYYCARESSMTTVTTYLLREVGVGLDFDYWGQGTLVTVSS[human IgG1 constant region omitted]
light: ETTLTQSPGTLSLSPGERATLSCRASQTVSGSYLAWYQQKPGQPPRLLIYGASSRATGIPDRFSGSGSGTDFTLTISRLEPEDFAVYYCQDYGSSRTFGQGTKVELKRTVAAPSVFIFPPSDEQLKSGTASVVCLLNNFYPREAKVQWKVDNALQSGNSQESVTEQDSKDSTYSLSSTLTLSKADYEKHKLYACEVTHQGLSSPVTKSFNRGEC
specificity of binding: serpinB13 versus other clade B serpins [1]: specifically recognize human serpinB13 but no other serpins of clade B family
